Source: the supplement of paper PMC3334620
Over roughly 33,000 sequences, “E-score (-0.5 to 0.5)” has its median near -0.053; the highest 2% begin near 0.37. This is one part of the list.

What follows are sequences tested against Hap1 (UniProt P0CE41) (assay: PBM E-score (8-mer binding enrichment) (E-score (-0.5 to 0.5)); higher = stronger / more preferred TF binding; most listed sequences are background and not binding sites). Conditions: protein concentration: 200 nM; construct: GST-DNA-binding domain.
Sequence of UniProt P0CE41 (P0CE41 whole entry, the tested form may be a part): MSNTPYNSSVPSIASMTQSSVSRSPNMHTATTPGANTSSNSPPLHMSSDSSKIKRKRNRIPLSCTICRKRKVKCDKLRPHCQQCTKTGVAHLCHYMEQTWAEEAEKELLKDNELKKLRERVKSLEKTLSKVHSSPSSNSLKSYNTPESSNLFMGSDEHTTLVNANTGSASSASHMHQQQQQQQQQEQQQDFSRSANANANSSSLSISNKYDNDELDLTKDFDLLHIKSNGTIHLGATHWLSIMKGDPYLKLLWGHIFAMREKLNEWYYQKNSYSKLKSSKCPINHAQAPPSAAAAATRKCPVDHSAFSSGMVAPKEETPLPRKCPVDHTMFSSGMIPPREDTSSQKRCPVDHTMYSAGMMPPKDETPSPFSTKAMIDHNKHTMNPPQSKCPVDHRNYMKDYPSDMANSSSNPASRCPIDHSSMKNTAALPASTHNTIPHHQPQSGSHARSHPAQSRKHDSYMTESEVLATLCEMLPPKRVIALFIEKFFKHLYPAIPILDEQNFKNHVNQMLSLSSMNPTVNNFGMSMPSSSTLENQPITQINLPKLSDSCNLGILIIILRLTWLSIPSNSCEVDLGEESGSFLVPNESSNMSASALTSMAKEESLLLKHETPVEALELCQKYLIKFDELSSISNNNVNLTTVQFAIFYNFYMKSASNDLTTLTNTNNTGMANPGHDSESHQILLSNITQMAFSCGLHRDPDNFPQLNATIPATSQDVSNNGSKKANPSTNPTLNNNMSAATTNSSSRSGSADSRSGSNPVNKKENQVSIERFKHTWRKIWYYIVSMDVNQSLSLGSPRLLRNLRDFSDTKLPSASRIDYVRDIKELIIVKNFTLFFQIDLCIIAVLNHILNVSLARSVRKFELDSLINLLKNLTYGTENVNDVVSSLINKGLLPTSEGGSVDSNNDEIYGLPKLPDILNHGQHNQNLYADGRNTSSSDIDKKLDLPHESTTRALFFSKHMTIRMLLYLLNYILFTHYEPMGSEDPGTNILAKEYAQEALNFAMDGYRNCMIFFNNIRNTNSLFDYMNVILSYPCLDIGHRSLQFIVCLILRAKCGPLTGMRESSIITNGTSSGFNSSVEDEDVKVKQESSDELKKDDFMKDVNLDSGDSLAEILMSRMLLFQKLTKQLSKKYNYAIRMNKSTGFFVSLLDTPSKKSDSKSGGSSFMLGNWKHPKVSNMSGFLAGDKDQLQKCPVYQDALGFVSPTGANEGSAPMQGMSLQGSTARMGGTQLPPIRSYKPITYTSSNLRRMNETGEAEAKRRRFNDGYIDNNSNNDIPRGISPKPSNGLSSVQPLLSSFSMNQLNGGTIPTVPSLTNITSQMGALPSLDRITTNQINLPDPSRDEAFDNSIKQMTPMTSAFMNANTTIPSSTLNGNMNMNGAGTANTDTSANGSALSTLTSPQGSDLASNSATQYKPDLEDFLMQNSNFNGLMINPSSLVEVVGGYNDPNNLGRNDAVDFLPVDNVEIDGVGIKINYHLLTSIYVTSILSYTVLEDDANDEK
Protocol: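 Universal 'all 10-mer' protein binding microarrays (Agilent AMADID 015681) probed with GST-tagged S. cerevisiae TFs (full-length or DBD) made by in vitro transcription/translation (PURExpress), about 100-200 nM. Bound TF was detected with fluorescent anti-GST. Each ungapped 8-mer (which stands for itself and its reverse complement) is scored by the PBM enrichment score (E-score), a modified Wilcoxon-Mann-Whitney statistic from -0.5 to +0.5, computed with the Universal PBM Analysis Suite. Scale: above 0.35 generally sequence-specific binding.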
With ACTGGGGA the “PBM E-score” value was -0.016.
For AGTCTTGA, the “PBM E-score” value was -0.261.
In the case of AAGAAGCG, the “PBM E-score” value is reported as -0.149.
CGATTCAC was tested, and the “PBM E-score” value was 0.113.
With AGGACACG the “PBM E-score” value was 0.0655.
For AATTATCA, the “PBM E-score” value was -0.101.
AAAGAACC was tested, and the “PBM E-score” value was 0.106.
GCAGCGTA was tested, and the “PBM E-score” value was -0.0937.
In the case of AAAGGCCT, the “PBM E-score” value is reported as -0.305.
AACTTTCA was tested, and the “PBM E-score” value was -0.106.
CTGACCGA was tested, and the “PBM E-score” value was 0.258.
In the case of GCTCTCCA, the “PBM E-score” value is reported as -0.177.
With CTAGTTCA the “PBM E-score” value was -0.0651.
AGGGATAG was tested, and the “PBM E-score” value was -0.116.
In the case of AGATCGGC, the “PBM E-score” value is reported as 0.267.
For AGTCACAC, the “PBM E-score” value was -0.233.
In the case of TACTGATA, the “PBM E-score” value is reported as 0.0105.
AGATGTAG was tested, and the “PBM E-score” value was -0.064.
In the case of CTTTTTGC, the “PBM E-score” value is reported as -0.0126.
For ATTTAGAC, the “PBM E-score” value was -0.0358.
With GCGCGTAA the “PBM E-score” value was 0.155.
TAGATAGA was tested, and the “PBM E-score” value was -0.111.
For TCATTCGA, the “PBM E-score” value was -0.161.
With CCAACGCC the “PBM E-score” value was 0.0877.
With ATTGCAAC the “PBM E-score” value was 0.0746.
With AAACCGGG the “PBM E-score” value was 0.234.
For CAAGCTGG, the “PBM E-score” value was -0.242.
With GCTGCTGA the “PBM E-score” value was -0.113.
AGGTGCGA was tested, and the “PBM E-score” value was -0.0418.
For AGAAAGAA, the “PBM E-score” value was -0.0768.
AACCCCAG was tested, and the “PBM E-score” value was -0.0536.
With AACTGCGA the “PBM E-score” value was 0.185.
For ATTTTTCC, the “PBM E-score” value was 0.124.
CTGGAAGA was tested, and the “PBM E-score” value was -0.0745.
With AACCCCCG the “PBM E-score” value was 0.262.
ATGCGAGA was tested, and the “PBM E-score” value was -0.168.
ACGACGCC was tested, and the “PBM E-score” value was -0.0839.
With CCGCTGCC the “PBM E-score” value was -0.0154.
With CAAATACC the “PBM E-score” value was 0.103.
For CAGTCCGC, the “PBM E-score” value was 0.0912.
CACCGTGG was tested, and the “PBM E-score” value was -0.121.
AGCTAAAG was tested, and the “PBM E-score” value was -0.12.
GGCTGCGA was tested, and the “PBM E-score” value was -0.128.
For CATCAAAG, the “PBM E-score” value was -0.2.
For AAACCTTA, the “PBM E-score” value was 0.0158.
In the case of AAACTATA, the “PBM E-score” value is reported as -0.0142.
In the case of ACTACGTG, the “PBM E-score” value is reported as -0.161.
In the case of CAGATCAC, the “PBM E-score” value is reported as -0.191.
CGTACGAC was tested, and the “PBM E-score” value was -0.0847.
In the case of GGAGTCGA, the “PBM E-score” value is reported as -0.0486.
CGTAATTA was tested, and the “PBM E-score” value was 0.0116.
With CGATGGAG the “PBM E-score” value was 0.185.
For AGGCAAGG, the “PBM E-score” value was -0.298.
CGGCAGGC was tested, and the “PBM E-score” value was -0.012.
In the case of ACATATAC, the “PBM E-score” value is reported as -0.123.
ACTGGGAT was tested, and the “PBM E-score” value was -0.0267.
With ATGGACGG the “PBM E-score” value was 0.19.
CGGCGGGC was tested, and the “PBM E-score” value was 0.254.
With GGTAGTTA the “PBM E-score” value was 0.0824.
ACGCTGGG was tested, and the “PBM E-score” value was -0.131.
With GTGATTCA the “PBM E-score” value was -0.322.
ATGGTGGC was tested, and the “PBM E-score” value was -0.219.
In the case of GGAACGGA, the “PBM E-score” value is reported as 0.303.
With AAAAGTGA the “PBM E-score” value was -0.076.
With ATATTTAC the “PBM E-score” value was 0.125.
For GAGTCATA, the “PBM E-score” value was -0.0413.
GCACGCAA was tested, and the “PBM E-score” value was -0.0136.
For CGCCTAGC, the “PBM E-score” value was -0.132.
In the case of CGCCTACA, the “PBM E-score” value is reported as -0.222.
With AGTAACAA the “PBM E-score” value was -0.129.
In the case of CTACAGAG, the “PBM E-score” value is reported as -0.223.
GGAATATA was tested, and the “PBM E-score” value was 0.226.
AGATGAGC was tested, and the “PBM E-score” value was -0.182.
With TATGTAGA the “PBM E-score” value was -0.166.
CACGAGGA was tested, and the “PBM E-score” value was -0.0134.
CCGAGCTA was tested, and the “PBM E-score” value was 0.31.
With CATGCAAG the “PBM E-score” value was -0.0911.
In the case of GAGATCTC, the “PBM E-score” value is reported as 0.156.
In the case of ATCCTGTA, the “PBM E-score” value is reported as -0.19.
In the case of GGCATTAC, the “PBM E-score” value is reported as 0.268.
TAGAGACA was tested, and the “PBM E-score” value was -0.246.
In the case of AGCAAATG, the “PBM E-score” value is reported as -0.233.
With ATCGTGAG the “PBM E-score” value was -0.00799.
In the case of CGCGTCAA, the “PBM E-score” value is reported as -0.0722.
ATACTAAA was tested, and the “PBM E-score” value was -0.00575.
With CGAATCTC the “PBM E-score” value was 0.234.
AGCCAAAC was tested, and the “PBM E-score” value was 0.0592.
CTGCGTCC was tested, and the “PBM E-score” value was -0.104.
CAATCGGG was tested, and the “PBM E-score” value was 0.205.
With GGCTTTAA the “PBM E-score” value was 0.314.
With TAGGGGAA the “PBM E-score” value was -0.295.
For ACAGTCCC, the “PBM E-score” value was 0.00129.
For CCGAATCA, the “PBM E-score” value was 0.229.
With GCATGCAC the “PBM E-score” value was -0.222.
For GCCATTAA, the “PBM E-score” value was -0.00272.
In the case of GCGTTATA, the “PBM E-score” value is reported as 0.0076.
For GACTCCCA, the “PBM E-score” value was -0.0794.
With TACGTGCA the “PBM E-score” value was -0.113.
In the case of CACATCAA, the “PBM E-score” value is reported as -0.0134.
With GGGTCGTA the “PBM E-score” value was 0.0749.
With GACACGAA the “PBM E-score” value was -0.0202.
For GAATCAAC, the “PBM E-score” value was 0.0943.
In the case of AGCTCTAG, the “PBM E-score” value is reported as -0.0648.
For CATGGGTC, the “PBM E-score” value was -0.168.
In the case of CCTTGAAG, the “PBM E-score” value is reported as -0.173.
With ACCCCATA the “PBM E-score” value was 0.0968.
AGAAGGAT was tested, and the “PBM E-score” value was -0.263.
For AGGTTAGA, the “PBM E-score” value was -0.0741.
With AGTTCACA the “PBM E-score” value was -0.0871.
For TCAATCAA, the “PBM E-score” value was 0.0139.
With CGTGCCTA the “PBM E-score” value was -0.163.
In the case of CTCAGGCC, the “PBM E-score” value is reported as -0.0471.
For ATCCCCCC, the “PBM E-score” value was -0.00218.
For ACCGCAAC, the “PBM E-score” value was 0.259.
In the case of CGTATATC, the “PBM E-score” value is reported as 0.0289.
For CGCCAGGC, the “PBM E-score” value was 0.0936.
In the case of CTTTTCCA, the “PBM E-score” value is reported as -0.118.
In the case of AGTACTCG, the “PBM E-score” value is reported as 0.0239.
With ACTCCGCT the “PBM E-score” value was 0.21.
In the case of AAGTGAAG, the “PBM E-score” value is reported as -0.125.
For AAACGGCT, the “PBM E-score” value was -0.00631.
ATGGAGTG was tested, and the “PBM E-score” value was -0.186.
In the case of ACTATCAT, the “PBM E-score” value is reported as 0.0979.
In the case of AAAACACC, the “PBM E-score” value is reported as 0.155.
In the case of ACGACAAA, the “PBM E-score” value is reported as 0.0147.
In the case of CTTCAGCC, the “PBM E-score” value is reported as -0.174.
With ACGTAGCG the “PBM E-score” value was 0.0111.
With TACCACAA the “PBM E-score” value was -0.0071.
AGCAGGCA was tested, and the “PBM E-score” value was -0.173.
AGTCGATC was tested, and the “PBM E-score” value was 0.0221.
With TCCTAACA the “PBM E-score” value was -0.286.
AATTGGTA was tested, and the “PBM E-score” value was 0.0798.
CCATTAGC was tested, and the “PBM E-score” value was -0.105.
With CGATTCAG the “PBM E-score” value was -0.0955.
With GCTGTCTA the “PBM E-score” value was -0.114.
CAAGGTCG was tested, and the “PBM E-score” value was -0.159.
In the case of AAGAGTCT, the “PBM E-score” value is reported as -0.303.
For CGAGTTAA, the “PBM E-score” value was 0.172.
CACTGAAG was tested, and the “PBM E-score” value was 0.0169.
For CGGGCCTC, the “PBM E-score” value was 0.192.
ATGGGCCC was tested, and the “PBM E-score” value was 0.0947.
CAACGGAC was tested, and the “PBM E-score” value was 0.345.
For CTTCGTGC, the “PBM E-score” value was -0.172.
For AGGGCGTC, the “PBM E-score” value was 0.129.
With TCCCGACA the “PBM E-score” value was 0.127.
With AGACTTCA the “PBM E-score” value was -0.262.
With AATAAGAA the “PBM E-score” value was 0.0502.
With AAAGAATA the “PBM E-score” value was -0.138.
With GTCCTCTA the “PBM E-score” value was -0.278.
For TAGCCTCA, the “PBM E-score” value was -0.109.
CTCAATCC was tested, and the “PBM E-score” value was -0.0245.
GGCGACTA was tested, and the “PBM E-score” value was -0.0531.
In the case of ACGCCAGC, the “PBM E-score” value is reported as -0.112.
For ATTTTACA, the “PBM E-score” value was -0.19.
With CTCCCCTA the “PBM E-score” value was 0.146.
In the case of CGCTTGCA, the “PBM E-score” value is reported as -0.0441.
With CGCCGCAG the “PBM E-score” value was 0.22.
For CCCGTAAA, the “PBM E-score” value was 0.206.
For AGGCTCCA, the “PBM E-score” value was -0.148.
CATATTAG was tested, and the “PBM E-score” value was -0.0685.
With GACCGGTC the “PBM E-score” value was 0.325.
For GTATGTAA, the “PBM E-score” value was -0.0486.
For GACCTTCC, the “PBM E-score” value was 0.078.
With CACAATTA the “PBM E-score” value was -0.182.
ACACGGAC was tested, and the “PBM E-score” value was 0.279.
For ATTCCTGG, the “PBM E-score” value was -0.077.
With GCGGCCAA the “PBM E-score” value was 0.0252.
For ATTACTAG, the “PBM E-score” value was -0.0203.
With GAAGGGGA the “PBM E-score” value was -0.119.
ACATGGGA was tested, and the “PBM E-score” value was 0.0443.
With GGCTTGTA the “PBM E-score” value was -0.157.
For GTAATCAC, the “PBM E-score” value was 0.0661.
